Source: paper PMC4336329 (PLoS ONE, 2015)
The campaign covered roughly 310,000 compounds. About 14,000 (4.5%) showed an effect of 50% or more. The effect is printed as a negative number. Some of the results follow.

Each compound was assayed against human ether-à-go-go-related gene (hERG) potassium channel (human, UniProt Q12809) (assay: primary screen, population patch clamp on CHO cells stably expressing hERG).
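Further: peak tail current of the secondary pulse compared with the same well before compound.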

Chain of human ether-à-go-go-related gene (hERG) potassium channel (Q12809 whole entry, looked up): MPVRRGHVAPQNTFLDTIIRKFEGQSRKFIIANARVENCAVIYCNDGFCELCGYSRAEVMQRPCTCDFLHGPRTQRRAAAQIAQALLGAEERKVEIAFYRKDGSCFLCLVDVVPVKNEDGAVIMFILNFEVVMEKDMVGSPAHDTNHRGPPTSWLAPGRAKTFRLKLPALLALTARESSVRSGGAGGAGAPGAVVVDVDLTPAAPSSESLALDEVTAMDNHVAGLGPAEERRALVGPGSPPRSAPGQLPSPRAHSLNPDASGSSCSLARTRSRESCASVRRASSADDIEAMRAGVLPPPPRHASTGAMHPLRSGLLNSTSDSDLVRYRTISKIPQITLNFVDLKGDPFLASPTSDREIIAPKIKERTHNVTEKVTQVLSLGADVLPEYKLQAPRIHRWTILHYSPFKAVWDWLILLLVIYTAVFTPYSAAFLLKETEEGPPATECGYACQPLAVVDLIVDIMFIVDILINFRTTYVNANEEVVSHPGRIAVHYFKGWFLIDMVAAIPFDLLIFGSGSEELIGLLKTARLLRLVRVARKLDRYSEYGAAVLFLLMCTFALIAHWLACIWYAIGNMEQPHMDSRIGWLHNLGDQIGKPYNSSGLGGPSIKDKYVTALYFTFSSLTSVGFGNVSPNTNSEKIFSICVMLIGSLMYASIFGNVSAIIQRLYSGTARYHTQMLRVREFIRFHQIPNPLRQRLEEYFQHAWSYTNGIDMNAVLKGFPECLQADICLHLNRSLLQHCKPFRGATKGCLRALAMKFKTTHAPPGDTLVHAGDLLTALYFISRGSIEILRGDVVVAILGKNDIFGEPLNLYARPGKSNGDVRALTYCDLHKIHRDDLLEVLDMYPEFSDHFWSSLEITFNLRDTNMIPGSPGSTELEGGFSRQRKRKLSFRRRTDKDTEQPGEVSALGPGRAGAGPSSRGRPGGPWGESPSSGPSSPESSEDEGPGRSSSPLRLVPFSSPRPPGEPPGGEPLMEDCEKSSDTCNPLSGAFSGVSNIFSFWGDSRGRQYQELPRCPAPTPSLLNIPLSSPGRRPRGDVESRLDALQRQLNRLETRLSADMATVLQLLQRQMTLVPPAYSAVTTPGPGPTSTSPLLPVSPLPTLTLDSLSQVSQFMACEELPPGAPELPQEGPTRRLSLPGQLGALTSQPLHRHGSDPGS

Compared with O=C(Cn1nnc(-c2ccc(Cl)cc2)n1)NC1CCN(Cc2ccccc2)CC1, COc1ccccc1Nc1nc(N)nc(CN2CCN(Cc3ccccc3)CC2)n1 is lower in “hERG current change (%, negative = inhibition) at 10uM” value: -16.9% for the first, -73.2% for the second.

Compared with CCOC(=O)N1CCN(C(=O)c2ccc3c(c2)ncn3C2CCCC2)CC1, CCOC(=O)N1CCN(C(=O)C2CCC(=O)N2C(C)C)CC1 (stereo not shown) is higher in “hERG current change (%, negative = inhibition) at 10uM” value: -2.67% for the first, -2.08% for the second.

Compared with COc1ccc(NC(=O)N2CCN(S(C)(=O)=O)CC2)cc1, COc1ccc(N2CCN(/C(=N\S(=O)(=O)c3ccccc3)Nc3nc(C)cc(C)n3)CC2)cc1 is lower in “hERG current change (%, negative = inhibition) at 10uM” value: 21.6% for the first, -8.79% for the second.

First: c1ccc(CNc2ncnc3c2oc2ccccc23)nc1
Second: Cc1cccc(/C=N/n2c(C)nc3ccccc3c2=O)c1
The “hERG current change (%, negative = inhibition) at 10uM” value of the first is higher: -1.56% for the first, -10.7% for the second.

First: O=C(N/N=C/c1ccc[nH]1)c1cccc([N+](=O)[O-])c1
Second: Cc1c(/C=N/NC(=O)C(C)(C)Oc2ccc(Cl)cc2)cnn1C
The “hERG current change (%, negative = inhibition) at 10uM” value of the first is higher: -2.45% for the first, -10.4% for the second.

Going from CCOC(=O)c1c(NC(=O)c2cccs2)sc(C)c1CC to CCN(CC)C(=O)c1ccc2c(=O)n(CCOC)c(=S)[nH]c2c1, the “hERG current change (%, negative = inhibition) at 10uM” value falls from 2.45% to -7.02%.

Compared with COc1ccc(-n2c(=O)c3ccccc3n(CC(=O)NCc3ccco3)c2=O)cc1, COC(=O)C1=C(C)N(Cc2ccccc2)C(=NCc2ccc(OC)cc2)N[C@H]1c1cccc(F)c1 is lower in “hERG current change (%, negative = inhibition) at 10uM” value: 18.3% for the first, 6.76% for the second.

First: CCn1c(=O)c2c(nc3n2CCS3)n(C)c1=O
Second: O=C1[C@@H]2CSCN2C(=O)CN1Cc1c(F)cccc1Cl
The “hERG current change (%, negative = inhibition) at 10uM” value of the first is higher: 8.6% for the first, 3.59% for the second.

Going from Cc1cc(/C=C2\C(=O)NC(=O)N(c3ccc(Br)cc3)C2=O)c(C)n1-c1cc(C(=O)O)cc(C(=O)O)c1 to Cc1cccc(N2C(=O)NC(=O)/C(=C\c3ccc(N4CCOCC4)cc3)C2=O)c1, the “hERG current change (%, negative = inhibition) at 10uM” value rises from 9.45% to 24.9%.

Compared with Cc1cccc(NS(=O)(=O)c2cc(C(=O)OC(C)C(=O)NCc3ccc4c(c3)OCO4)ccc2C)c1 (stereo not shown), Cc1ccc(NC(=O)c2ccc(OCc3c(C)noc3C)cc2)c(C)c1 is higher in “hERG current change (%, negative = inhibition) at 10uM” value: -17.3% for the first, -7.97% for the second.

Compared with CC(C)Cc1nnc(NC(=O)CSc2nc(=O)cc(N)n2-c2ccccc2)s1, Cc1c(C)n2c(SCC(=O)Nc3ccc4c(c3)OCCO4)nnc2[nH]c1=O is higher in “hERG current change (%, negative = inhibition) at 10uM” value: -2.71% for the first, 4.29% for the second.

Going from Cc1nc(C(=O)N2CCCC(Nc3ccc(C)c(C)c3)C2)cs1 (stereo not shown) to Cc1ccc(S(=O)(=O)N2CCC(C(=O)OCC(=O)N3CCCC3=O)CC2)cc1C, the “hERG current change (%, negative = inhibition) at 10uM” value falls from 23.5% to 4.7%.

First: CCN(CC)CCOC(=O)/C=C/c1ccccc1.Cl
Second: CCOC(=O)/C(C(N)=NC)=C(\O)c1ccccc1
The “hERG current change (%, negative = inhibition) at 10uM” value of the first is lower: -12.4% for the first, 1.21% for the second.

Going from Cc1cc(C)c(C#N)c(Oc2ccccc2)n1 to Cc1ccsc1CNCCc1ccccc1F, the “hERG current change (%, negative = inhibition) at 10uM” value falls from 1.32% to -5.57%.

Compared with CC(C)c1ccc2[nH]c3nc(SCC(=O)N4CCOCC4)nnc3c2c1, CC1CN(C(=O)CCC(=O)N2CCOCC2)c2ccccc2O1 (stereo not shown) is lower in “hERG current change (%, negative = inhibition) at 10uM” value: 23.1% for the first, -12.2% for the second.

Compared with Cc1ccc(OCC(=O)N2CCC(N3CC(C)CC(C)C3)CC2)cc1 (stereo not shown), Cc1ccc(S(=O)(=O)N2CCC(C(=O)N[C@@H](C)C(=O)Nc3ccc(F)cc3)CC2)cc1 is higher in “hERG current change (%, negative = inhibition) at 10uM” value: -45.5% for the first, -0.951% for the second.

Going from CCCOc1ccc(N2C(=O)CC(SCCc3nc4ccccc4[nH]3)C2=O)cc1 (stereo not shown) to CCC1(c2ccc(F)cc2)NC(=O)N(CC(=O)N2c3ccccc3NC(=O)CC2C)C1=O (stereo not shown), the “hERG current change (%, negative = inhibition) at 10uM” value falls from -23.2% to -58.4%.

Compared with COc1ccc(OC)c(/C=C/C(=O)c2ccc(Cl)cc2)c1, Cc1[nH]c2ccccc2c1/C=C/C(=O)c1ccccc1 is lower in “hERG current change (%, negative = inhibition) at 10uM” value: 4.68% for the first, 1.64% for the second.

First: O=C(COc1ccccc1)Nc1cc(C(F)(F)F)ccc1N1CCCC1
Second: Cc1c(NC(=S)NC(=O)COc2ccccc2)c(=O)n(-c2ccccc2)n1C
The “hERG current change (%, negative = inhibition) at 10uM” value of the first is higher: 20.3% for the first, 6.73% for the second.

First: Cc1ccc(C(=O)N2CCN(c3ncnc4c3cnn4-c3ccccc3)CC2)cc1
Second: Cc1[nH]nc2c1C1(CCN(C(=O)c3ccccc3)CC1)C(C#N)=C(N)O2
The “hERG current change (%, negative = inhibition) at 10uM” value of the first is lower: -0.928% for the first, -0.805% for the second.

Going from COc1ccc(OC)c(-c2nn(-c3ccccc3)cc2C(=O)NCC(c2cccs2)N2CCOCC2)c1 (stereo not shown) to COc1ccc(C2C(C#N)=C(N)Oc3c2c(-c2ccccc2)nn3-c2ccccc2)c(OC)c1OC (stereo not shown), the “hERG current change (%, negative = inhibition) at 10uM” value rises from -30.2% to -1.15%.

First: CCCNC(=O)c1cc(S(=O)(=O)N2CCCCC2)c[nH]1
Second: CCOC(=O)C1CCN(CC(C)(C)NS(=O)(=O)c2ccccc2)CC1
The “hERG current change (%, negative = inhibition) at 10uM” value of the first is higher: 21.4% for the first, 11.5% for the second.

Compared with O=C(Nc1ccccc1)Nc1cccc2nsnc12, CC1=C(C(=O)Nc2ccccc2C)C(c2ccc(C)o2)n2c(s/c(=C/c3ccccc3)c2=O)=N1 (stereo not shown) is higher in “hERG current change (%, negative = inhibition) at 10uM” value: -16.9% for the first, 0.661% for the second.

Going from O=C(O)C(c1ccccc1)C1(O)CCCC1 (stereo not shown) to CCCN1CCN(CCCNC(=O)c2cc3c(=O)[nH]c4ccccc4c3s2)CC1, the “hERG current change (%, negative = inhibition) at 10uM” value falls from 5.92% to -8.3%.

Compared with CCn1c(SCC(=O)c2ccc3c(c2)Cc2ccccc2-3)nnc1-c1ccc(N)cc1, Cc1cc(/C=C(/C#N)C(=O)Nc2ccc(Cl)cc2)c(C)n1-c1cccnc1 is lower in “hERG current change (%, negative = inhibition) at 10uM” value: 8.11% for the first, -67.5% for the second.

Compared with COCCNC(=O)NC(=O)CN1C(=O)NC(Cc2c[nH]c3ccccc23)C1=O (stereo not shown), CCOc1cc(CNCCO)cc(Br)c1OCc1ccccc1Cl.Cl is lower in “hERG current change (%, negative = inhibition) at 10uM” value: 15.3% for the first, 12.5% for the second.

Going from Cc1cc(C)c2c(c1)-c1c(ssc1=S)C(C)(C)N2C(=O)CSc1nncn1C to N#Cc1c2c(c(NCCOCCO)n3c1nc1ccccc13)CCCC2, the “hERG current change (%, negative = inhibition) at 10uM” value falls from -30.4% to -63.3%.

With O=C(CCn1ccc([N+](=O)[O-])n1)NC1CCCCCC1 the “hERG current change (%, negative = inhibition) at 10uM” value was -5.39%.
